Laboratory results reported in PMC4336329 (PLoS ONE, 2015).
The campaign covered roughly 310,000 compounds. About 2,200 (0.71%) showed an effect of 50% or more. Effects have a minus sign here. The list shows a part of the results.

Target: human ether-à-go-go-related gene (hERG) potassium channel (human, UniProt Q12809)
Assay: primary screen, population patch clamp on CHO cells stably expressing hERG

Chain of human ether-à-go-go-related gene (hERG) potassium channel (Q12809 whole entry, looked up): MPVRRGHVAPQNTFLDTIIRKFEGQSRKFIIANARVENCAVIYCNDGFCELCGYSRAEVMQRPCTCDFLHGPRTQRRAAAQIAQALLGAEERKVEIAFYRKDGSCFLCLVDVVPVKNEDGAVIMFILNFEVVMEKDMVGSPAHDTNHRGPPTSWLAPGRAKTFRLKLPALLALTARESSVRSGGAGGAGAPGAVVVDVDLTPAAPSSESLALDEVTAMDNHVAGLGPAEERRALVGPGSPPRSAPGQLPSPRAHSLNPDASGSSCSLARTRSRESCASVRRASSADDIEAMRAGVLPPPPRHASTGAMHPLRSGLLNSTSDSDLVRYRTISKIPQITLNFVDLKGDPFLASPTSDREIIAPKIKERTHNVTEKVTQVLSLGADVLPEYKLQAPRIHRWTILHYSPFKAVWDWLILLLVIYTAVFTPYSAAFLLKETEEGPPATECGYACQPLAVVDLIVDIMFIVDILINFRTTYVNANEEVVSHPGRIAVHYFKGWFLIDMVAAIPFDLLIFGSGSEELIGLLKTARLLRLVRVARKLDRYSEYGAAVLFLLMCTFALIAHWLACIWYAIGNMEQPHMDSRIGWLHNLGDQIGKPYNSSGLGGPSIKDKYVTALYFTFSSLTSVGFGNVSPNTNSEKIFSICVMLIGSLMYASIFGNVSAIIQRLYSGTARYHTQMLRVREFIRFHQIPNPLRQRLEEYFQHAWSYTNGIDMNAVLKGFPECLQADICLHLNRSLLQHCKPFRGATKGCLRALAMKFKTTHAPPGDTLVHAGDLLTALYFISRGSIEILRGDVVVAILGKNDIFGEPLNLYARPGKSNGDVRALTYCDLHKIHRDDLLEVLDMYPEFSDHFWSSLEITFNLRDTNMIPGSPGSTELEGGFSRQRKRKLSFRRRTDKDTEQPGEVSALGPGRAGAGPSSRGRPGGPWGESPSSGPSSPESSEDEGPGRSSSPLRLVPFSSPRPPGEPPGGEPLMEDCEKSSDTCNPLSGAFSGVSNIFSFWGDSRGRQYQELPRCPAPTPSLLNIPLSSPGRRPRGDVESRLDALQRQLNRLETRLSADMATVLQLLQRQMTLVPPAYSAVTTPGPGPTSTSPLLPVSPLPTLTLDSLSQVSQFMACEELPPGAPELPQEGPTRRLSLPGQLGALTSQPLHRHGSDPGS

SMILES | hERG current change (%, negative = inhibition) at 1uM
CCn1nnnc1SCC(=O)Nc1nc(-c2cccs2)cs1 | 8.07%
Cc1nc(C)c(C(=O)O)c(-c2ccsc2)c1C(=O)O | 8.89%
Cc1ccc(CC(=O)Nc2ncc([N+](=O)[O-])s2)cc1 | 16.3%
Cc1ccccc1-c1nn(-c2ccc(F)cc2F)cc1CNC1CC1 | 21.5%
COCCN=c1scc(-c2ccccc2)n1/N=C/c1c[nH]c2ccccc12 | 18.1%
O=C(NC1CCCC1)C(c1ccncc1)N(C(=O)c1csnn1)c1ccc(F)cc1 (stereo not shown) | 12.8%
CCOC(=O)c1cnc2c(ccc3ccccc32)c1NCCCN(C)C | -6.29%
O=C(c1ccc(Oc2ccc(C(F)(F)F)cc2[N+](=O)[O-])cc1)N1CCOCC1 | -7.54%
COc1ccc(N(CC(=O)NC2CCCC2)C(=O)c2ccc(C)s2)c(OC)c1 | 4.67%
Oc1ccc(-c2nc(=S)[nH][nH]2)cc1 | 12%
Cc1c(/C=N/n2cnnc2)c2ccccc2n1CCOc1ccccc1 | 1.96%
COC(=O)/C=C/c1ccc(OC(=O)c2ccncc2)cc1 | 13.8%
COc1cccc(OCC(=O)Nc2cc(Cl)ccc2Oc2ccccc2)c1 | 7.16%
O=C1NC(=O)C(Cc2cccc(Oc3ccccc3)c2)S1 (stereo not shown) | 16.6%
Nc1nc(C(=O)N2CCOCC2)nn1S(=O)(=O)c1ccc(Cl)cc1 | 2.74%
O=c1[nH]n(Cc2ccccc2)c2ccccc12 | 9.22%
O=C(CSc1nnc(-c2ccncc2)o1)NC1C2CC3CC(C2)CC1C3 (stereo not shown) | -0.0324%
Cc1nnsc1C(=O)Nc1ccc(S(=O)(=O)N2CCCCC2C)cc1 (stereo not shown) | 12.5%
O=C(NCC(=O)N1CCc2ccccc2C1)c1ccc(Cl)cc1Cl | 3.55%
O=C(Nc1ccc(Cl)cc1)C(c1ccccc1)N1CCOCC1 (stereo not shown) | 8.12%
O=C(CN1CCN(c2ccccc2F)CC1)NC(=O)NCc1ccco1 | 14.4%
COC(=O)c1nnn(CC(=O)NC(=O)Nc2ccc(F)cc2)c1C(=O)OC | 11.1%

SMILES | hERG current change (%, negative = inhibition) at 1uM
COc1ccccc1C(CNc1nc(C(F)(F)F)nc2ccccc12)N(C)C (stereo not shown) | 8.51%
Cc1c(C(=O)N2CCN(Cc3ccc4c(c3)OCO4)CC2)sc2ncnc(N3CCN(c4ccccc4F)CC3)c12 | 12.1%
CCOC(=O)NC(=O)C(=CNc1ccccc1OC)C(=O)NC(=O)OCC | 9.62%
CC1=NN(c2nc(-c3ccc(C)cc3)cs2)C(=O)C1N=Nc1ccc(C(N)=O)cc1 (stereo not shown) | 18.6%
COc1ccc(NS(=O)(=O)c2cc(Cl)ccc2Cl)cc1S(=O)(=O)N1CCCCC1 | 5.46%
CCC(c1nnc(SCC(=O)Nc2nnc(-c3ccccc3)o2)o1)N(C)C (stereo not shown) | 7.8%
CCc1cccc2c(C(=O)COC(=O)c3cccc(S(=O)(=O)N(C)C4CCCCC4)c3)c[nH]c12 | 9.04%
CCOC(=O)N1CCC(NCCNC(=O)c2ccc(F)cc2)CC1.Cl | 8.29%
CCC(C(=O)Nc1cccc(OC)c1)n1nc(C)c2c(C)n(-c3ccccc3)nc2c1=O (stereo not shown) | 4.27%
CCOC(=O)c1c(-c2ccc(C)o2)csc1NC(=O)CN1CCOCC1 | 9.27%
Oc1ccc(Br)cc1-c1n[nH]c(=S)n1Cc1ccccc1 | 12.4%
Cc1cc(Cl)nc(SCC(=O)c2ccccc2)n1 | 8.88%
COc1ccc(CNC(=O)c2ccc(Cl)c(S(=O)(=O)N3CCOCC3)c2)cc1OC | 10.3%
COc1ccc(CNCc2ccc(C(F)(F)F)cc2)cc1OC.O=C(O)C(=O)O | 16.8%
CC(=O)c1cc(C#N)c(Oc2ccc(Cl)cc2Cl)nc1C | 9.38%
CCn1nc(NC(=O)c2ccccn2)c2cc3cc(C)ccc3nc21 | 8.82%
CCOC(=O)c1c(C)c2c(n1C)CCC/C2=N\O | 11.8%
CCc1c(C)nc(N2CCN(Cc3ccccc3)CC2)[nH]c1=O | 16.4%
CC1(C)Oc2ccc3ccc(=O)oc3c2/C(=C/NCCO)C1=O | 7.93%
CCOC(=O)N1CCN(C(=O)CCSc2ccccc2)CC1 | -11.2%
Cc1ccc(C(=O)O/N=C(\N)c2ccc(Br)cc2)cc1C | 18%
CCOc1ccc(CCNC(=O)COC(=O)c2cccc(S(=O)(=O)N3CCOCC3)c2)cc1OCC | 6.25%

SMILES | hERG current change (%, negative = inhibition) at 1uM
COc1ccccc1NC(=O)C(C)OC(=O)c1cc2ccccc2[nH]1 (stereo not shown) | 2.39%
COCC1CCN(C(=O)c2cc(COc3ccccc3SC)on2)C1 (stereo not shown) | -7.27%
CCOc1ccc(CCNC(=O)C2CCN(S(=O)(=O)c3ccc(C)cc3)CC2)cc1OCC | 3.52%
CC(C)C(C)NC(=O)CSc1nnc(-c2c[nH]c3ccccc23)o1 (stereo not shown) | 4.32%
CC(=O)c1c(C)[nH]c(C(=O)COC(=O)c2cc(C)oc2C)c1C | 2.54%
CCOc1ccc(NC(=NCc2ccc3c(c2)OCO3)SC2CC(=O)N(c3ccccc3)C2=O)cc1 (stereo not shown) | 8.55%
O=C(C1CCCN1S(=O)(=O)c1cccc2nsnc12)N1CCN(c2ccccc2)CC1 (stereo not shown) | -1.72%
C[C@@H]1NC(=O)[C@@]2(C)[C@@H](c3ccccc3)[C@H]3COc4ccccc4[C@@H]3N2C1=O | 9.53%
O=C(NNC(=O)c1cccnc1SCc1cccc([N+](=O)[O-])c1)c1ccccn1 | 17.3%
CC(C)Oc1ccc(C(=O)NCC(=O)O)cc1 | 5.71%
Cc1cc(CNC(=O)C2CCC(=O)N(CCc3cccc(F)c3)C2)on1 (stereo not shown) | 15.4%
CNS(=O)(=O)c1cc(OCC(N)=O)c(C)cc1Cl | 14.3%
O=C(NCC(=O)N1CCCC(C(F)(F)F)C1)c1ccco1 (stereo not shown) | 11.9%
COc1ccc(C)cc1NC(=O)CN(C)S(=O)(=O)c1cc(C)ccc1OC | -2.6%
COc1ccc(OC)c(/C=N\Nc2nccs2)c1 | 8.6%
CCN(C(=O)CSc1nnc2ccccn12)C1CCS(=O)(=O)C1 (stereo not shown) | 16.9%
CCCCNC(=O)CCn1nc(-c2ccc(Cl)cc2)c2ccccc2c1=O | -1.12%
Cc1cccc(N2CCN(c3cc(C)nc4nnnn34)CC2C)c1 (stereo not shown) | 1.26%
CCc1ccc(CN2CCCC(CNC(=O)c3cc(OC)cc(OC)c3)C2)cc1 (stereo not shown) | -31.6%
COc1ccc(C(=O)NC(C)c2ccc(-n3ccnc3)cc2)cc1[N+](=O)[O-] (stereo not shown) | -40.1%
COc1ccc(-c2cc3nc(C)cc(NCCO)n3n2)cc1 | -5.46%
Cl.Nc1csnc1C(=O)O | -6.84%

SMILES | hERG current change (%, negative = inhibition) at 1uM
CCOC(=O)Cn1c(=NC(=O)C(C)(C)C)sc2cc([N+](=O)[O-])ccc21 | 10.4%
Cc1cccc(C)c1Nc1ncnc(N)c1[N+](=O)[O-] | 15.5%
CC(=O)Nc1ccc(SCC(=O)Nc2sccc2C#N)cc1 | 17.1%
Cc1cc(=O)n2nc(N3CCCC(C(=O)NCCc4ccc(Cl)cc4)C3)sc2n1 (stereo not shown) | 1.6%
CC1=NOC(=O)/C1=C\c1ccc(-c2ccc(Br)cc2C(=O)O)o1 | 18.2%
CCCCn1c(N)c(N(CCC(C)C)C(=O)C2CC(=O)N(c3cccc(SC)c3)C2)c(=O)[nH]c1=O (stereo not shown) | 5.59%
CCCCn1cnc2c1c(=O)n(C)c(=O)n2C | 8.06%
COC(=O)c1ccccc1N(Cc1ccccc1)S(C)(=O)=O | 12.4%
COc1ccc(-n2c(CSc3nc(C)cc(C)n3)nnc2SCC(=O)Nc2nccs2)cc1 | 6.62%
COc1cccc(CNC(=O)CN2C(=O)CC(c3ccccc3)=Nc3ccccc32)c1 | -5.42%
CCC(CC)N1CCN(C(=O)c2cccc(Cl)c2)CC1.O=C(O)C(=O)O | 8.52%
O=C(NCc1ccc(N2CCCC2=O)cc1)Nc1cccc(Cl)c1 | 3.8%
CCOc1ccc(OCC(=O)NCc2n[nH]c(=O)c3ccccc23)cc1 | 9.85%
C=CCNC(=O)C1CC(=O)N(c2ccc(OCC(=O)Nc3c(C)cccc3C)cc2)C1 (stereo not shown) | 11.8%
COCCN1Cc2cccc(C(=O)Nc3ccc(S(=O)(=O)N4CCCCC4)cc3)c2C1=O | 8.61%
Cl.Oc1ccc(Cl)cc1CNCc1cccc2ccccc12 | -2.78%
CN(C)CCOC(=O)C1(c2ccccc2)CCCC1.Cl | 8.03%
Cc1c(NC(=O)CSCc2ccc(Cl)cc2Cl)cccc1C(=O)O | 8.81%
Cc1ccc(NC(=O)CSc2nc(N)c3c4c(sc3n2)CSC(C)(C)C4)cc1 | 17.5%
CC(=O)c1ccc(NC(=O)NC2CCCc3ccccc32)cc1 (stereo not shown) | -9.72%
O=C(O)c1cccnc1SCc1ccc([N+](=O)[O-])cc1 | 11.9%
Cc1ccccc1-n1cc(CNC(=O)CC2C(=O)NCCN2C/C=C/c2ccccc2)cn1 (stereo not shown) | 8.08%
